According to publication PMC4336329 (PLoS ONE, 2015):
The campaign covered roughly 310,000 compounds. About 2,200 (0.71%) showed an effect of 50% or more. Effects have a minus sign here. The list shows a part of the results.

Each molecule was assayed against human ether-à-go-go-related gene (hERG) potassium channel (human, UniProt Q12809) (assay: primary screen, population patch clamp on CHO cells stably expressing hERG).
human ether-à-go-go-related gene (hERG) potassium channel, sequence (Q12809 whole entry, looked up): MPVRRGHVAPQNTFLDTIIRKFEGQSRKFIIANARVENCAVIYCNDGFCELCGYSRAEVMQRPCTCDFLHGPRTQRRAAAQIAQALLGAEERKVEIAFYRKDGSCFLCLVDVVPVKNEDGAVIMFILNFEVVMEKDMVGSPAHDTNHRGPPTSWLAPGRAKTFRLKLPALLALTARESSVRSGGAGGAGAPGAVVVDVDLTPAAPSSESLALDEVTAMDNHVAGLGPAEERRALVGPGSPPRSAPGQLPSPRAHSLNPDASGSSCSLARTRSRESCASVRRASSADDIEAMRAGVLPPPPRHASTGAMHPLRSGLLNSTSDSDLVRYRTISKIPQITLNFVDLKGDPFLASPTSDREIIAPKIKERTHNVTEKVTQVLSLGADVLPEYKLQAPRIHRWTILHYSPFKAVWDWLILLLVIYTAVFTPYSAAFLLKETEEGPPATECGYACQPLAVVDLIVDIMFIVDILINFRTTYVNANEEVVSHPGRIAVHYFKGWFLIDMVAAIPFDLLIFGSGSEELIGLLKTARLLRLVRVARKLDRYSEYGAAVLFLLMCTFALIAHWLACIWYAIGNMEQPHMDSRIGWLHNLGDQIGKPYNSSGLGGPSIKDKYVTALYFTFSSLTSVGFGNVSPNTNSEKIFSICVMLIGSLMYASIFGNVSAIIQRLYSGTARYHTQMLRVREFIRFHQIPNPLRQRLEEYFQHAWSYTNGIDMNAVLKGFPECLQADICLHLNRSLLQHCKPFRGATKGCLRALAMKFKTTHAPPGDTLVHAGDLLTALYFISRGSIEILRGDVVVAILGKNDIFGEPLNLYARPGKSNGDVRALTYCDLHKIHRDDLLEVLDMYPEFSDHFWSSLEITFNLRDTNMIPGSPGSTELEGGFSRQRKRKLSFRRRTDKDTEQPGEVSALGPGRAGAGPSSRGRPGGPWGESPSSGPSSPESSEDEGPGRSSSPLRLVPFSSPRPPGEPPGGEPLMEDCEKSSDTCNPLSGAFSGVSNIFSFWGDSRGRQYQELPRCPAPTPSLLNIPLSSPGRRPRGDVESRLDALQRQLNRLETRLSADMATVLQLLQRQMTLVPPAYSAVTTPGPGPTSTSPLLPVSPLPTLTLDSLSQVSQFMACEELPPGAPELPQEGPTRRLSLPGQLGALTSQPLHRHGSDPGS

SMILES | hERG current change (%, negative = inhibition) at 1uM
Cc1ccc(NC(=O)C(=O)NCCCN2CCCC2=O)cc1 | -6.56%
CC(NC(=O)c1cc2cc(F)ccc2[nH]1)c1ccccc1 (stereo not drawn) | 8.69%
Cc1ccc(Oc2c(C(N)=O)cc([N+](=O)[O-])cc2[N+](=O)[O-])cc1 | -0.121%
O=C(COC(=O)c1ccc(S(=O)(=O)NCc2ccco2)cc1)NCC1CCCCC1 | 8.83%
Cc1cc(=O)oc(C)c1C(=O)NCc1ccc(F)cc1 | 4.86%
OCc1cc(Br)ccc1OCc1nc2ccccc2s1 | 15.3%
O=C(CN(c1ccc(Cl)cc1)S(=O)(=O)c1ccc(Cl)c([N+](=O)[O-])c1)NCCc1ccc(F)cc1 | 11.6%
COc1ccc(NC(=O)CN(C)C(=O)/C=C/c2cn(Cc3ccccc3)nc2-c2cccnc2)cc1 | -4.4%
COc1cc([N+](=O)[O-])ccc1NC(=O)CSc1nccn1C | 8.78%
CC1CCc2sc(C(=O)N/N=C/c3ccc([N+](=O)[O-])cc3)cc2C1 (stereo not drawn) | 8.05%
CCC(C)n1nccc1NC(=O)C(C)OC(=O)c1cc2ccccc2[nH]1 (stereo not drawn) | -8.48%
CCCCC(=O)NC(c1ccco1)c1cc(Cl)c2cccnc2c1O (stereo not drawn) | -8.66%
CCOC(=O)c1nc(N/N=C/c2ccccc2)sc1Br | 5.05%
O=C(c1cc2c(s1)CCC2)N1C(=O)c2ccccc2S1(=O)=O | 21.9%
CCC(=O)NNC(=S)NC(=O)c1ccc(C)cc1 | 4.29%
COc1ccc(NC(=S)N(CCCN2CCOCC2)Cc2cn(C)c3ccccc23)cc1OC | 3.03%
O=C(CNS(=O)(=O)c1ccc(Br)cc1)OCc1cc(=O)n2cc(Br)ccc2n1 | 4.46%
CCCOc1ccc(C(=O)NNC(=O)CCNC(=O)c2ccccc2Cl)cc1OC | -8.29%
CC(C)C[C@H](NC(=O)c1[nH]cnc1C(=O)N[C@@H](Cc1ccccc1)C(=O)OCc1ccccc1)C(=O)OC(C)(C)C | 7.61%
Fc1ccc(COc2ccc(-c3nnco3)cc2)cc1 | 2.24%
O=C(CSc1ccccc1)Nc1nnc(C2CC2)s1 | 12.3%
CS(=O)(=O)c1ccc(Cl)c(NC(=O)COC(=O)c2cccc(S(=O)(=O)N3CCCCC3)c2)c1 | 4.76%

SMILES | hERG current change (%, negative = inhibition) at 1uM
O=C(OCc1ccc([N+](=O)[O-])cc1)C1CC(=O)N(CCc2ccccc2)C1 (stereo not drawn) | -56.3%
Cc1nc2sc(C(=O)Nc3ccccc3)c(N)c2c(C)c1[N+](=O)[O-] | 12.5%
COc1ccccc1NC(=O)COC(=O)c1ccccc1OCC(=O)Nc1ccc(SC(F)F)cc1 | 3.96%
NC(=NC(=O)c1ccc(Cl)cc1)N1N=CCC1c1ccccc1 (stereo not drawn) | 10.1%
COCC(=O)N(Cc1ccc(OC)cc1)Cc1nc2ccccc2c(=O)[nH]1 | 9.95%
CC(Oc1ccccc1)C(=O)OCC(=O)NC(=O)NC1CCCCC1 (stereo not drawn) | 8.31%
O=c1[nH]c(O)c(N=Nc2cccc(S(=O)(=O)N3CCOCC3)c2)c(=O)[nH]1 | -37.6%
N/C(=N\OC(=O)Cc1ccccc1[N+](=O)[O-])c1ccc(Br)cc1 | 20.2%
CCc1ncc(C)nc1CC | 13.1%
COc1cccc(/C=C2\N=C(c3cncc(Br)c3)OC2=O)c1 | 17.1%
CC(C)(C)NC(=O)c1ccncc1 | 13.8%
O=S(=O)(Nc1ccc2cn[nH]c2c1)c1ccc(Cl)s1 | 14%
CSc1ccccc1NC(=O)CN(C)C(=O)c1ccc2c(c1)OCCO2 | 5.99%
COc1ccc(C[C@H]2CN3C(=NC[C@@H]3Cc3ccccc3)N2CCNC(=O)c2ccc(C)c(Br)c2)cc1 | -16.7%
COc1ccc(S(=O)(=O)N2CCCC2CNC(=O)C(=O)NC2CCCCCC2)cc1 (stereo not drawn) | -3.96%
O=S(=O)(c1ccc(OCc2ccc(Br)cc2)cc1)N1CCOCC1 | 7.49%
O=C(NCCc1ccc(Cl)cc1)C1CCC(=O)N1Cc1ccc(F)cc1 (stereo not drawn) | 3.46%
OCC1(Cc2ccc(F)cc2F)CCCN(Cc2ccc(Cl)cc2)C1 (stereo not drawn) | -15%
C/C(=C\C(=O)c1ccccc1)Nc1ccc(N2CCOCC2)cc1 | 11.8%
CCOc1ccc(CCNC(=O)COC(=O)c2ccc(OC)c(OC)c2OC)cc1OCC | 13.8%
CCOc1ccc(CCNC(=O)c2ccc(F)c(S(=O)(=O)N3CCOCC3)c2)cc1OCC | 6.28%
CC1(C)C(=O)Nc2ccccc2N1C(=O)COC(=O)COc1cccc(C(F)(F)F)c1 | -0.263%

SMILES | hERG current change (%, negative = inhibition) at 1uM
Cc1ccc(NC(=O)C(CC(=O)O)C2CCCO2)c(C)c1 (stereo not drawn) | 16%
CCOc1ccc(-c2c(C(=O)N/N=C(\C)c3ccccc3OC)nnn2-c2nonc2N)cc1 | 12.5%
Fc1ccc(CSc2nc3ncc(Br)cc3[nH]2)cc1 | 4.39%
C=CCn1c(C(CCCC)CC(O)COCCC)n[nH]c1=S (stereo not drawn) | 4.49%
Cc1nnc(SCC(=O)N(C(C)C)C(C)C)nc1C | 13.7%
Cc1ccc(NC(=O)C2CCCN(S(=O)(=O)c3cnc[nH]3)C2)c(Br)c1 (stereo not drawn) | 6%
Cn1cc(CC(=O)Nc2cccc(C#N)c2)c2ccccc21 | -0.916%
Cc1ccc(S(=O)(=O)N2CC(=NN=C(N)N)C2)cc1 | 16.4%
Cc1ccc(S(=O)(=O)N(CC(=O)Nc2cccnc2)c2ccccc2C)cc1 | 11.8%
Clc1ccc(N2CCN(c3ccnc(Cl)n3)CC2)cc1 | -2.08%
Cc1cccnc1CCNCc1c(C(=O)N2C[C@@H](C)O[C@@H](C)C2)nc2ccc(Cl)cn12 | 2.33%
Cc1cc(NC(=O)CSc2nnc(CNc3cccc(C(F)(F)F)c3)n2Cc2ccco2)no1 | -18.3%
Cn1cc(S(=O)(=O)Nc2ccc(Br)cc2F)c(=O)n(C)c1=O | 15.9%
CC1Sc2ccc(S(=O)(=O)N3CCC(C(=O)NCc4ccc(Cl)cc4)CC3)cc2NC1=O (stereo not drawn) | 8.37%
O=C1NC(=O)C2(CCC(C(=O)O)C2)N1 (stereo not drawn) | 14%
CC1CC(=O)c2cnc(NCc3ccco3)nc2C1 (stereo not drawn) | 12.2%
O=C(/C=C/c1ccc(N2CCCCC2)c([N+](=O)[O-])c1)c1ccc(O)cc1 | 10.9%
COc1cc2[nH]c3c(N4CCC(C(N)=O)CC4)ncnc3c2cc1OC | 9.48%
COc1ccc(S(=O)(=O)N2CCC(C(=O)NC3CC3)CC2)cc1C | 12.1%
COc1ccc(COC(=O)C2CCN(C(=O)c3ccc(Cl)cc3)CC2)cc1F | -6.26%
Nc1ccccc1SCCS(=O)(=O)c1ccc(Cl)cc1 | 19.8%
Cc1ccccc1C(=O)Nc1ccnn1C1CCN(Cc2ccncc2)CC1 | -3.47%

SMILES | hERG current change (%, negative = inhibition) at 1uM
CN1C(=O)CC(C(=O)O)SC1=Nc1ccc(F)cc1 (stereo not drawn) | -0.107%
Cc1ccc(NC(=O)Cn2nnc(C(=O)NCCc3ccccc3)c2N)cc1Cl | 13.5%
Cc1ccc([N+](=O)[O-])cc1NC(=O)C(C)NS(=O)(=O)c1ccc(F)cc1 (stereo not drawn) | 13.2%
COCCNC(=S)Nc1ccccc1Cc1ccccc1 | 11.8%
Cc1ccc(-n2c(SCC(=O)N(C)C)nnc2-c2ccco2)cc1 | 9.65%
O=C(CCc1nnc(Cc2ccc(-c3ccccc3)cc2)o1)N1CCCC1 | 4.62%
CCCCOc1ccc(C(=O)N/C(=C/C=C/c2ccccc2)C(=O)N2CCOCC2)cc1 | 10.5%
Cc1cc(-c2cc(N)n(-c3ccccc3)n2)c(C)n1C1CCCC1 | 4.93%
O=C(Oc1ccc(-c2cnc3ccccc3n2)cc1)c1ccco1 | 6.39%
Cn1cnnc1SCc1ccc(C(=O)O)cc1 | 9.77%
CCN(CC)CC(=O)Nc1ccc(Oc2ccc(NC(=O)CN(CC)CC)cc2)cc1 | 14.2%
CCN(C(=O)c1cccnc1SC)C12CC3CC(CC(C3)C1)C2 | 12.5%
CCOC(=O)Cc1nnc(NC(=O)C2CCCCC2)s1 | 4.85%
O=C(COC(=O)CN1C(=O)C2CCCCC2C1=O)Nc1c(Cl)cccc1Cl (stereo not drawn) | -0.667%
CCNC(=O)[C@H]1O[C@@H](n2cnc3c(N)nc(NCCc4ccc(CCC(=O)O)cc4)nc32)[C@H](O)[C@@H]1O.Cl | 13.8%
CCOC(=O)c1cnc2c(CC)cccc2c1NCCCN1CCOCC1 | -1.29%
O=C(CCNC(=O)c1ccccc1Cl)Nc1cc(C(F)(F)F)ccc1N1CCCC1 | 7.21%
O=S(=O)(c1cccc(Cl)c1)N1CCSc2ccccc21 | 1.42%
CCn1cc(C(=O)N2CCn3c(nc4ccccc43)C2)c(=O)c2ccc(C)nc21 | 9.47%
CCOCCCn1c(=S)[nH]c2cc(C(=O)NCCCN(CC)CC)ccc2c1=O | 8.5%
CCN(CC)c1ccc(C=Nc2ccc(C#N)cc2)c(O)c1 | 2.25%
